Test results from the BET-seq Pho4 binding data (Le et al. 2018).
Some of the results follow. Values were computed here from the reads of four pooled replicates and scatter widely.

Each sequence was assayed against T1, Pho4 (S. cerevisiae) (UniProt P07270) (assay: relative binding free energy (BET-seq); higher = weaker binding). Settings: reference: library average.
T1 sequence: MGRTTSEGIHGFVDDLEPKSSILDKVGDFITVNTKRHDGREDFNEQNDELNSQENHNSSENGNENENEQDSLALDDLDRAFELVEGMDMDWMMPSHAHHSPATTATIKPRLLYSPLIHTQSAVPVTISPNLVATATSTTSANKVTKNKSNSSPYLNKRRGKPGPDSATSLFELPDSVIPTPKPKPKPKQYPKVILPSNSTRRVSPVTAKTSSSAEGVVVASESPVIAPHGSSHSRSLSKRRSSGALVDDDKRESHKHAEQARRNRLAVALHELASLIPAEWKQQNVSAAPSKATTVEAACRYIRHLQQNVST
For GTATACACGTGTATGT, the “relative binding free energy” value was -0.05 kcal/mol.
In the case of GTACGCACGTGGTGGA, the “relative binding free energy” value is reported as -0.25 kcal/mol.
For GATGTCACGTGGGCTA, the “relative binding free energy” value was 0 kcal/mol.
With GGGTTCACGTGTGATT the “relative binding free energy” value was 0.45 kcal/mol.
In the case of GCTTTCACGTGATAGG, the “relative binding free energy” value is reported as 0.45 kcal/mol.
With AAGAGCACGTGGGTGG the “relative binding free energy” value was -0.23 kcal/mol.
With ATCGTCACGTGGTGAG the “relative binding free energy” value was 0.12 kcal/mol.
With TTAAACACGTGTGATT the “relative binding free energy” value was -0.04 kcal/mol.
In the case of ACGGTCACGTGACGGT, the “relative binding free energy” value is reported as 0.3 kcal/mol.
GGATGCACGTGGGTTG was tested, and the “relative binding free energy” value was -0.15 kcal/mol.
In the case of TCGGTCACGTGTCTGG, the “relative binding free energy” value is reported as 0.06 kcal/mol.
In the case of TGTTCCACGTGTACGT, the “relative binding free energy” value is reported as 0.01 kcal/mol.
AGATGCACGTGTTGGG was tested, and the “relative binding free energy” value was -0.03 kcal/mol.
GCTGTCACGTGAGGTT was tested, and the “relative binding free energy” value was 0.49 kcal/mol.
CTAGTCACGTGATAGG was tested, and the “relative binding free energy” value was 0.16 kcal/mol.
For CGGTACACGTGAGGGA, the “relative binding free energy” value was 0.14 kcal/mol.
For GCGATCACGTGTGATT, the “relative binding free energy” value was 0.42 kcal/mol.
AGCGTCACGTGAGATG was tested, and the “relative binding free energy” value was 0.17 kcal/mol.
With AGAGCCACGTGTAAGG the “relative binding free energy” value was 0.18 kcal/mol.
CCTGGCACGTGAGTGG was tested, and the “relative binding free energy” value was 0.18 kcal/mol.
In the case of TGTGGCACGTGTATAG, the “relative binding free energy” value is reported as 0.05 kcal/mol.
For AGGAACACGTGCGTTG, the “relative binding free energy” value was 0 kcal/mol.
In the case of ATTTTCACGTGGGAGA, the “relative binding free energy” value is reported as 0.26 kcal/mol.
In the case of AATGGCACGTGATAAG, the “relative binding free energy” value is reported as -0.09 kcal/mol.
With CTGCGCACGTGGTGGT the “relative binding free energy” value was -0.25 kcal/mol.
GAGTGCACGTGGCTGA was tested, and the “relative binding free energy” value was -0.01 kcal/mol.
For GTTGTCACGTGGCTAT, the “relative binding free energy” value was -0.04 kcal/mol.
TGGTTCACGTGAGCTG was tested, and the “relative binding free energy” value was 0.27 kcal/mol.
In the case of TAAGTCACGTGATGGG, the “relative binding free energy” value is reported as 0.39 kcal/mol.
In the case of TGCGTCACGTGAGGTG, the “relative binding free energy” value is reported as 0.2 kcal/mol.
For GGTGTCACGTGAGCGC, the “relative binding free energy” value was 0.21 kcal/mol.
With TCCGGCACGTGATTGT the “relative binding free energy” value was 0.09 kcal/mol.
For CTGGGCACGTGGATGC, the “relative binding free energy” value was -0.21 kcal/mol.
With GTACTCACGTGGGTAA the “relative binding free energy” value was 0.23 kcal/mol.
In the case of TACGTCACGTGAATTT, the “relative binding free energy” value is reported as 0.29 kcal/mol.
For CGAATCACGTGGTGGT, the “relative binding free energy” value was 0.22 kcal/mol.
ATATGCACGTGTTCAT was tested, and the “relative binding free energy” value was -0.08 kcal/mol.
With CTTTACACGTGGATTG the “relative binding free energy” value was 0.07 kcal/mol.
For TGCGTCACGTGGCAGT, the “relative binding free energy” value was 0.14 kcal/mol.
In the case of ATGAACACGTGTGGGG, the “relative binding free energy” value is reported as 0.11 kcal/mol.
With TGGAACACGTGGTGAA the “relative binding free energy” value was 0.03 kcal/mol.
With TGGTACACGTGGGTTG the “relative binding free energy” value was -0.03 kcal/mol.
With AATGTCACGTGGTCGT the “relative binding free energy” value was -0.1 kcal/mol.
With GCTATCACGTGGGAGG the “relative binding free energy” value was 0.14 kcal/mol.
CTATTCACGTGGGGTA was tested, and the “relative binding free energy” value was 0.17 kcal/mol.
TTCGTCACGTGGCGGT was tested, and the “relative binding free energy” value was 0.11 kcal/mol.
AGAAACACGTGGGGTC was tested, and the “relative binding free energy” value was 0.09 kcal/mol.
In the case of GGCTTCACGTGGTTAA, the “relative binding free energy” value is reported as 0.26 kcal/mol.
For GAAGGCACGTGGGATG, the “relative binding free energy” value was -0.15 kcal/mol.
With AGGGACACGTGTTATA the “relative binding free energy” value was 0.05 kcal/mol.
For ATCGTCACGTGGCGTG, the “relative binding free energy” value was -0.13 kcal/mol.
For TTAAGCACGTGTTACT, the “relative binding free energy” value was -0.08 kcal/mol.
In the case of AATGTCACGTGATGTA, the “relative binding free energy” value is reported as 0.12 kcal/mol.
In the case of ATATACACGTGATGGG, the “relative binding free energy” value is reported as 0.33 kcal/mol.
In the case of GTTCGCACGTGAGGAT, the “relative binding free energy” value is reported as 0.32 kcal/mol.
For AGTTTCACGTGTTTGT, the “relative binding free energy” value was 0.18 kcal/mol.
TGCGTCACGTGGGGGA was tested, and the “relative binding free energy” value was 0.01 kcal/mol.
With AGGCTCACGTGGGACT the “relative binding free energy” value was 0.29 kcal/mol.
For TGAGACACGTGGTTAG, the “relative binding free energy” value was 0.14 kcal/mol.
With ACTTTCACGTGGATTT the “relative binding free energy” value was 0.19 kcal/mol.
For CGGTGCACGTGTATAG, the “relative binding free energy” value was -0.02 kcal/mol.
TGGTACACGTGTATGG was tested, and the “relative binding free energy” value was 0.05 kcal/mol.
In the case of GGGTGCACGTGAGGGG, the “relative binding free energy” value is reported as 0.23 kcal/mol.
